# In the supplement of paper PMC4967469:
# IC50 is the fitted dose that halves viability relative to control wells, and lower means more sensitive; a limit (>, <) means that the fit lies beyond the doses tested. AUC sums up the same curve from the lowest dose to the 256-fold higher top dose; it is 1 without any effect and falls as sensitivity rises. Any top dose called inferred was derived from the fitted curves, not read from the paper. An entry number marks a drug with two screens in the source, which often give different values.
# Compound: NC(=O)[C@@H](CCC(F)(F)F)N(Cc1ccc(-c2ncon2)cc1F)S(=O)(=O)c1ccc(Cl)cc1 [BMS-708163]
# Test: Viability of human cancer cell lines after 72 h of drug (GDSC screen)
# Conditions: screen: GDSC drug entry 205; top dose inferred
# Method: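 Human cancer cell lines in 384-well plates, medium with 10% serum, drug for 72 h over a 256-fold dose range (nine 2-fold or five 4-fold steps up to the top dose). Adherent lines were fixed and stained with the nucleic acid dye Syto60, suspension lines read with resazurin; signal relative to control wells, capped at 0 and 100%. One two-parameter sigmoid per drug and line, fitted in a mixed model over all curves with the slope shared within a line.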
Cell Line,AUC,IC50
"LCLC-103H (large cell lung carcinoma, adherent, top dose 10.24 µM)",0.991,> 10.2 µM
"HCT-15 (large intestine, adherent, top dose 10.24 µM)",0.987,> 10.2 µM
"COR-L95 (small cell lung carcinoma, adherent, top dose 10.24 µM)",0.979,> 10.2 µM
"WM-115 (melanoma, adherent, top dose 10.24 µM)",0.957,> 10.2 µM
"HCC2998 (large intestine, adherent, top dose 2.56 µM)",0.988,> 2.56 µM
"G-292 Clone A141B1 (osteosarcoma, adherent, top dose 10.24 µM)",0.972,> 10.2 µM
"no-10 (glioma, adherent, top dose 10.24 µM)",0.98,> 10.2 µM
"CP66-MEL (melanoma, adherent, top dose 10.24 µM)",0.984,> 10.2 µM
"HCC-827 (lung adenocarcinoma, adherent, top dose 10.24 µM)",0.984,> 10.2 µM
"NCI-H1915 (large cell lung carcinoma, adherent, top dose 10.24 µM)",0.981,> 10.2 µM
"NCI-H2009 (lung adenocarcinoma, adherent, top dose 10.24 µM)",0.986,> 10.2 µM
"GT3TKB (stomach, adherent, top dose 10.24 µM)",0.99,> 10.2 µM
"FU-OV-1 (ovary, adherent, top dose 10.24 µM)",0.977,> 10.2 µM
"COR-L23 (large cell lung carcinoma, adherent, top dose 10.24 µM)",0.977,> 10.2 µM
"EW-18 (Ewing sarcoma, suspension, top dose 10.24 µM)",0.958,> 10.2 µM
"HCC1419 (breast, adherent, top dose 10.24 µM)",0.982,> 10.2 µM
"H9 (lymphoid neoplasm, suspension, top dose 10.24 µM)",0.986,> 10.2 µM
"NCI-H2023 (lung adenocarcinoma, adherent, top dose 10.24 µM)",0.982,> 10.2 µM
"WSU-DLCL2 (B-cell lymphoma, suspension, top dose 10.24 µM)",0.992,> 10.2 µM
"LS-513 (large intestine, adherent, top dose 2.56 µM)",0.986,> 2.56 µM

Cell Line,AUC,IC50
"FADU (head and neck, adherent, top dose 10.24 µM)",0.988,> 10.2 µM
"SKN-3 (head and neck, adherent, top dose 10.24 µM)",0.983,> 10.2 µM
"DBTRG-05MG (glioma, adherent, top dose 10.24 µM)",0.981,> 10.2 µM
"SNU-C2B (large intestine, adherent, top dose 2.56 µM)",0.978,> 2.56 µM
"NH-12 (neuroblastoma, adherent, top dose 10.24 µM)",0.985,> 10.2 µM
"NCI-SNU-5 (stomach, suspension, top dose 10.24 µM)",0.989,> 10.2 µM
"H2722 (mesothelioma, adherent, top dose 10.24 µM)",0.967,> 10.2 µM
"BHT-101 (thyroid, adherent, top dose 10.24 µM)",0.984,> 10.2 µM
"CCK-81 (large intestine, adherent, top dose 2.56 µM)",0.987,> 2.56 µM
"OCI-AML5 (acute myeloid leukaemia, suspension, top dose 10.24 µM)",0.988,> 10.2 µM
"A704 (kidney, adherent, top dose 10.24 µM)",0.989,> 10.2 µM
"OVMIU (ovary, adherent, top dose 10.24 µM)",0.971,> 10.2 µM
"SCC-15 (head and neck, adherent, top dose 10.24 µM)",0.974,> 10.2 µM
"CW-2 (large intestine, adherent, top dose 2.56 µM)",0.989,> 2.56 µM
"LS-123 (large intestine, adherent, top dose 10.24 µM)",0.965,> 10.2 µM
"ST486 (Burkitt lymphoma, suspension, top dose 10.24 µM)",0.988,> 10.2 µM
"KYSE-510 (oesophagus, adherent, top dose 10.24 µM)",0.992,> 10.2 µM
"L-428 (Hodgkin lymphoma, suspension, top dose 10.24 µM)",0.99,> 10.2 µM
"RF-48 (stomach, adherent, top dose 10.24 µM)",0.981,> 10.2 µM
